PubChem BioAssay AID652104 (National Center for Advancing Translational Sciences (NCATS), 2013)
Among all 410,000 compounds or so, about 7,200 (1.8%) were called active. The inconclusive results got no clear call from the source; some entries with a clear call stand among them for comparison. Calls follow the shape of the dose curve; as a rule, active = well fitted activation curve with a large enough effect; inconclusive = small, poorly fitted or top-dose-only effect, or another doubt; inactive = no such curve, though single readings can be large or run the other way. Potencies of inconclusive entries are doubtful fits and often do not repeat.

Experiment: qHTS of TDP-43 Inhibitors; also: nearly all actives have a fitted effect of over 50% in size; as to growth rescue (activation): % of control where 0% means no effect
Settings: TDP-43 expressing yeast growth rescue, BacTiter-Glo, 24 h; growth rescue (activation): at 46.1 µM (top of the series) unless noted
Method in brief: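 Yeast cells expressing TDP-43 under galactose induction are exposed to compounds for 24 hr at 30 deg C. BacTiter-Glo luminescence measures growth, so protective compounds score as activators.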
Potency is read from the fitted curve at half-maximal effect; tags tell the direction and shape of the fitted curve.

Potency, inactive:
O=S(=O)(c1ccc(Cl)cc1)N1CCN(c2nc(-c3cccs3)nc3ccccc23)CC1, O=C(NCCCNC(=O)c1c(F)cccc1F)c1c(F)cccc1F, CC(=O)N1CCCc2cc(S(=O)(=O)N3CCC(C(=O)NCc4ccccc4Cl)CC3)ccc21, CCN1CCN(c2cc(C)c3cc(NC(=O)c4cc(Br)ccc4Cl)ccc3n2)CC1, Cc1ccc(NC(=O)CSc2ncc3c(n2)-c2ccccc2N(C)S3(=O)=O)c(Cl)c1, CCc1ccc(OCC(=O)Nc2ccc(-c3nc4ccccc4o3)c(O)c2)cc1, CC1N=C2c3ccccc3N=C(SCC(=O)NCc3ccc(Cl)cc3)N2C1=O (stereo unspecified), CCN(CC)c1nn2c(=O)c(C(=O)NCc3cccc(OC)c3OC)cnc2s1, CCCCCC(=O)N1C[C@H](n2cc(C3CC3)nn2)[C@@H](O)C[C@@H]1c1ccc(C)cc1, CC(=O)c1sc(NC(=O)c2ccc(Cn3cc(Br)cn3)o2)nc1C, O=C(CN1CCN(S(=O)(=O)c2ccc3ccccc3c2)CC1)Nc1ccc2c(c1)CCC2, CCc1cc2c(cc3c(=O)n(CC(=O)NC4CCC(C)CC4)nc(CC)n32)s1 (stereo unspecified), O=C(Nc1cccc2cccnc12)c1cccc2c(Br)cccc12

Potency, inconclusive:
CC1Cc2ccccc2N1C(=O)CSc1nnc(Cc2ccccc2)n1CCc1ccccc1 (stereo unspecified) 22.4 µM [activator, single point], COc1ccc(CNc2oc(COc3ccccc3)nc2C#N)cc1 35.5 µM [activator, single point], O=C(Nc1cccc2ccccc12)C1CCCC1 11.2 µM [activator, partial curve, poor fit], Cc1ccccc1Nc1cc(C(=O)NCC2CCCO2)c2ccccc2n1 (stereo unspecified) 35.5 µM [activator, single point], CC1=C(C(=O)Nc2cccc(Cl)c2)C2(CCCCCC2)OC1=O 2.51 µM [activator, full curve], CC1CC(C)CN(C(=O)CCCn2c(=S)[nH]c3ccccc3c2=O)C1 (stereo unspecified) 11.2 µM [activator, partial curve], CC(C)c1c(O)nc(SCc2ccccc2)[nH]c1=O 10 µM [activator, partial curve], CC(=O)c1ccc(NC(=O)CSc2nc(=O)n3cccc(C)c3n2)cc1 31.6 µM [activator, partial curve], COc1ccc(/C=C2\SC(N3CCc4ccccc4C3)=NC2=O)cc1OC 20 µM [activator, single point], O=C(N/C=C/n1cnc2cc(C(F)(F)F)ccc21)c1ccccc1 25.1 µM [activator, partial curve], Oc1ccccc1/C=N/Nc1ncc(Br)cn1 10 µM [activator, partial curve], CC(C)(C)OC(=O)NCCCCCC(=O)N/N=C/c1coc2ccccc2c1=O 35.5 µM [activator, single point], CCOC(=O)C1=C(c2cccc(Oc3ccccc3)c2)NC(=S)NC1C (stereo unspecified) 28.2 µM [activator, single point], O=C(NCc1ccccc1Cl)c1ccc2nc(Cc3ccccc3)oc2c1 7.08 µM [activator, partial curve], COC(=O)N/N=C/c1ccc(Oc2ccccc2)cc1 35.5 µM [activator, single point], O=C1c2ccccc2CCC12N=NCC2c1ccc(Cl)cc1 (stereo unspecified) 10 µM [activator, single point], CCC(C)(CC(=O)Nc1nccs1)c1ccccc1 (stereo unspecified) 6.31 µM [activator, single point], Cc1nn(C)c(C(=O)N2CCOCC2)c1Cl 7.08 µM [activator, partial curve], N#Cc1c(C(F)(F)F)cc(-c2ccco2)nc1SCc1ccncc1 14.1 µM [activator, single point], CCN(CC)c1nc(N)nc(N(c2ccccc2)c2ccccc2)n1 35.5 µM [activator, single point], CC(C)C[C@H]1COc2cc(Br)ccc2S(=O)(=O)N1 12.6 µM [activator, partial curve], COc1ccc(C(=O)NC(C)CCc2ccccc2)cc1 (stereo unspecified) 11.2 µM [activator, partial curve], COC(=O)C1=NN(C(=O)c2cccc(Br)c2)C(O)(c2ccc(Cl)cc2)C1 (stereo unspecified) 35.5 µM [activator, single point], O=C1N/C(=N/N=C/c2ccccc2O)SC1Cc1ccc(F)cc1 (stereo unspecified) 0.794 µM [activator, full curve, poor fit], CCN(CC)C(=O)C1=C(C)N(Cc2ccc(C(C)(C)C)cc2)C(=O)C(CC(=O)NC2CCCCC2)C1 (stereo unspecified) 22.4 µM [activator, partial curve], O=C(COC(=O)C1CCN(c2ccc(C(F)(F)F)cn2)CC1)NCc1cccc(Cl)c1 17.8 µM [activator, single point], Cc1onc(-c2ccccc2)c1C(=O)NNC(=S)NC(=O)c1ccc(Br)cc1 3.16 µM [activator, single point], CCN(CC)c1ccc(N=C2C=CC(=O)C=C2NC(C)=O)cc1 11.2 µM [activator, single point], Cc1ccc(C)c(N2CCN(C(=O)Cc3cn(C)c4ccccc34)CC2)c1 25.1 µM [activator, single point], CCCNC(C)(C)COC(=O)c1ccccc1 39.8 µM [activator, partial curve, poor fit], C=CCNC(=O)c1onc(CSc2cc(C)cc(C)c2)c1C(=O)NCC=C 28.2 µM [activator, partial curve], CCOC(=O)C(Cc1c(F)cccc1Cl)c1ccno1 (stereo unspecified) 12.6 µM [activator, single point], C=CCNC(=S)N1CCC(C(=O)c2ccc(OC)cc2)CC1 35.5 µM [activator, single point], NNc1nc2c(Cl)ccc(Cl)c2s1 14.1 µM [activator, partial curve], C/C(N)=C(/C#N)C(=O)COC(=O)CC12CC3CC(CC(C3)C1)C2 12.6 µM [activator, single point], Cc1ccccc1-c1cnc2c(c1)C(=O)N([C@H](C)CO)C[C@@H](C)[C@H](CN(C)C(=O)c1ccncc1)O2 2.51 µM [activator, full curve, poor fit], Cc1ccccc1OCC(=O)NCC(c1ccc(Cl)cc1)N1CCOCC1 (stereo unspecified) 3.16 µM [activator, full curve, poor fit], COc1ccc(NC(=O)C2Cc3c(-c4ccc5c(c4)OCO5)ccnc3O2)cn1 (stereo unspecified) 11.2 µM [activator, single point], O=C(NCc1ccccc1Cl)c1ccccc1Oc1ccccc1 22.4 µM [activator, partial curve], CCOC(=O)C1=C(C)N=c2sc(=Cc3ccc(OCC(=O)O)cc3)c(=O)n2C1c1ccc(Cl)cc1 (stereo unspecified) 5.62 µM [activator, partial curve, poor fit], OC[C@H]1NC[C@@H](O)[C@@H]1O 35.5 µM [activator, partial curve], O=C(Nc1nnc(-c2ccccn2)o1)c1cccc(Br)c1 4.47 µM [activator, single point], COc1ccc(C(=O)NCC(=O)OCC(=O)Nc2ncc(Cl)cc2Cl)cc1[N+](=O)[O-] 31.6 µM [activator, partial curve], O=C(C1CCCCC1)N(Cc1cccnc1)c1nc2c(F)cccc2s1 2.82 µM [activator, partial curve, poor fit]

Potency, active:
Cc1ccc(Sc2ccc(CO)cc2[N+](=O)[O-])cc1 14.1 µM, O=C(O)C=C1CCN(c2ncc(C(F)(F)F)cc2Cl)CC1 12.6 µM, COc1cccc(C(=O)Nc2nc(-c3ccccc3)c(-c3ccccc3)o2)c1 20 µM, CC(C)CC(=O)NC(=S)Nc1ccc(N2CCN(C(=O)c3cccs3)CC2)cc1 17.8 µM, CCOc1cc(C)c(Cl)cc1S(=O)(=O)NCc1ccc2c(c1)OCO2 14.1 µM, Cc1ccc(N2C(=O)c3cccc([N+](=O)[O-])c3C2=O)cc1C 12.6 µM, Cc1c(C(=O)N(C)c2ccccc2)sc2nc(-c3ccc(F)cc3)cn12 35.5 µM, Cc1scc(-c2n[nH]c(=S)n2C(C)c2ccccc2)c1C (stereo unspecified) 35.5 µM, Cc1cc(N/N=C/c2ccc([N+](=O)[O-])o2)nc2ccccc12 12.6 µM, COc1cc(C(O)c2nc(-c3cccc(C#N)c3)cs2)ccc1F (stereo unspecified) 10 µM, CC(C)(CC(=O)O)Cc1nc(-c2ccc(Cl)cc2)no1 31.6 µM

Growth rescue (activation), inconclusive:
O=C(COc1ccccc1)NCC(=O)N1CCCCCC1 17.6% [activator], CCc1ccc(S(=O)(=O)ON2C(=O)c3ccccc3C2=O)cc1 -92.4% [activator], CC(C)c1cc2cc3ccc(=O)oc3cc2o1 30.9% [activator]
